This is an account of results in PubChem BioAssay (NCI).

“And” between values parts separate entries of the source, which are not always exact repeats. Identical values can stand only once.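 1) Cells in 96-well plates. 2) Compound, 48 h, 5 concentrations. 3) Linear interpolation between surrounding doses. 4) Unreached endpoint = highest concentration. At the GI50, growth is halved. TGI denotes the concentration required for complete inhibition of growth.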

In the test the test system is NCI-H322M lung. As to the kind of experiment: NCI anticancer screen, dose series, 48 h.
As to `CCNNC(=O)[C@@H]1[C@H](c2cc(OC)c(OC)c(OC)c2)c2cc3c(cc2[C@H](O)[C@H]1CO)OCO3`, the TGI was greater than 100 µM.
Regarding `COc1cccc(N=N/C(=N\NC(=O)c2cc(Br)ccc2O)c2ccc(N(CCC#N)CCC#N)cc2OC)c1`, the GI50 is 89.1 µg/mL and the TGI is greater than 150 µg/mL.
As for `CCC(=O)/C(=C\I)c1ccccc1`, the TGI is 27.6 µM.
The compound `O=C1CS(=O)(=O)C(c2cccc(Oc3ccccc3)c2)N1c1ccccc1` (stereo unspecified) showed a TGI greater than 100 µM.
For `COC(=O)C1=CON2C3CC4CC(C3)CC(C4)C12C` (stereo unspecified), the TGI was greater than 100 µM.
With `Clc1ccc(C2CC(c3cccc(Nc4ccncc4)c3)=NN2c2cc(Cl)cc(Cl)c2)cc1` (stereo unspecified), the GI50 was 1.62 µM and the TGI turned out to be 3.15 µM.
For `Nc1c(C(=O)N/N=C/c2ccc(-c3cc(Cl)c(Cl)cc3Cl)o2)cnn1-c1ccnc2c(C(F)(F)F)cccc12`, in that order: 4.34 µM and greater than 100 µM.
For `Cc1ccc(S(=O)(=O)N/N=C2/CCC(C(C)(C)C)CC2Br)cc1` (stereo unspecified), the TGI is greater than 100 µM.
In the case of `O=[N+]([O-])c1ccc(N2N=C(c3ccc4ccccc4c3O)CC2c2ccc(Cl)cc2)c([N+](=O)[O-])c1` (stereo unspecified), the TGI was greater than 100 µM.
The same measure, in the same setting: to `CC(=O)OC1CCC2C(=CCC3C2(C)C(=O)CC2(C)C(C4(C)OC(C(C)C)=CC4=O)C(O)CC32C)C1(C)C` (stereo unspecified) belongs greater than 100 µM.
As for `COc1cc(CCN(C)C)cc(OC)c1OC`, the TGI was greater than 100 µM.
`CC(=O)N(C(C)=O)n1c(Cc2ccc(C)cc2)nn(C(C)=O)c1=O`: the TGI was greater than 100 µM.
For the compound `NC(=O)c1ccccc1NC(=O)c1ccccc1Cl`, the GI50 is greater than 100 µM and the TGI was greater than 100 µM.
As to `CC(=O)OC(C)c1cc2c(s1)C(=O)c1c(C(C)OC(C)=O)csc1C2=O` (stereo unspecified), the TGI stood at 2.81 µM.
`Cc1c2ccccc2c(C)n2c1nc1ccccc12`: the TGI stood at 14.8 µM.
For `CC(C)C[C@H](NC(=O)CCn1ccc2ncccc2c1=O)B(O)O`, the GI50 is greater than 73.9 µM and the TGI is greater than 100 µM.
For the compound `O=C(CCSc1ccnc2c(C(F)(F)F)cccc12)N/N=C/c1cc(Cl)c(Cl)cc1Cl`, the GI50 is 28.6 µM and the TGI was 72.6 µM.
In turn, `O=C(N/N=C(/COc1ccccc1Cl)N=Cc1ccncc1)c1ccncc1` returned a TGI greater than 100 µM.
In turn, `C=C1CCCC2[C@](C)(CC3=C(O)C(=O)C=C(OC)C3=O)[C@@H](C)CC[C@]12C` (stereo partly specified) displayed a TGI of 16.8 µM.
For `CC(C)C[C@H](NC(=O)[C@@H](NC(=O)c1cccc(-c2ccccc2)n1)[C@@H](C)O)B(O)O`, the GI50 is 0.15 µM and 0.311 µM; the TGI amounted to 26.2 µM.
The compound `O=[N+]([O-])c1ccc(O)c(/C=N/c2nc(-c3ccccc3)cs2)c1` returned a TGI of 63.1 µM.
As for `C[n+]1c2ccccc2c(/C=N\NS(=O)(=O)c2ccc(Cl)cc2)c2ccccc21`, the TGI was greater than 100 µM.
Turning to `COc1cc(C2CC(=O)Nc3c2ccc2ccccc32)cc(Br)c1OC` (stereo unspecified), the GI50 is 0.693 µM and the TGI was greater than 100 µM.
For the compound `NC(CC(O)(c1ccccc1)c1ccccc1)c1ccccc1S` (stereo unspecified), the TGI is 34.5 µM.
Still for that read-out and setting: the same measure for `O=C(Nc1nc2ccc([N+](=O)[O-])cc2s1)C(=O)C(C(=O)c1ccncc1)C1OC(=O)c2ccccc21` (stereo unspecified): greater than 100 µM; for `CN(C)CC1CCC/C(=C\c2ccc(OC(=O)/C=C/c3ccc(Cl)c(Cl)c3)cc2)C1=O` (stereo unspecified): greater than 66.9 µM.
Turning to `O=C1C2=C(SCCS2)C(=O)c2c(Sc3ccc(Cl)cc3)c(Sc3ccc(Cl)cc3)c(Sc3ccc(Cl)cc3)c(Sc3ccc(Cl)cc3)c21`, the TGI was greater than 100 µM.
Turning to `COc1ccc2c(CCNC(=O)/C=C/c3ccccc3)c(C(C)=O)[nH]c2c1[N+](=O)[O-]`, the TGI was greater than 100 µM.
With `CCN(CC)CCn1c2ccc(OC)cc2c2sc3cc(OC)ccc3c(=O)c21`, the GI50 was 1.59 µM and the TGI came to 4.07 µM.
Turning to `NS(=O)(=O)c1ccc(-n2ncc3c(Nc4ccccc4)ncnc32)cc1`, the GI50 is 31.5 µM and the TGI is greater than 100 µM.
In the case of `O=S(=O)(NC1=NCCN1C(=S)SN1CCn2c1nsc2=S)c1ccccc1Cl`, the GI50 is 24.2 µM and the TGI was found to be 77.7 µM.
On the same counts, the results for `Cc1ncc(C(=O)Nc2ccc(CN3CCN(C)CC3)c(C(F)(F)F)c2)cc1C#Cc1c(N)ncc2ccccc12` are 0.562 µM and 1.1 µM.
`CNC(=S)NNc1ncnc2c1ncn2-c1ccc(C)cc1` showed a TGI greater than 100 µM.
The compound `O=C1/C(=C/c2ccccc2)NC(=S)N1CN1CCCCC1` registered a TGI greater than 100 µM.
Turning to `CCOc1nccc2c1nc(-c1nonc1N)n2CC`, the GI50 was greater than 25 µM and the TGI was greater than 25 µM.
In turn, `O=C(C(Cl)=C(N1CCCCC1)N1CCCCC1)C(Cl)Cl` yielded a TGI greater than 100 µM.
On to `Clc1cc(-c2ccccc2)nc2ccccc12`, for which the TGI is greater than 100 µM.
For `CC1=CCC[C@H]2[C@](C)(CC3=CC(=O)C(Sc4ccccc4)=CC3=O)[C@@H](C)CC[C@]12C`, the TGI turned out to be 56.4 µM.
`COc1c(C)c(C/C=C(\C)CC/C=C(\C)CC/C=C(\C)CCC=C(C)C)c(OC)c2ccccc12` gave a TGI greater than 100 µM.
Consider `COCC12CCC(OC)C34C5CC6(O)C(OC)CC(OC(C)=O)(C5C6OC(=O)c5ccccc5)C(C(OC)C13)C4N(C)C2` (stereo unspecified), for which the TGI was greater than 100 µM.
Regarding `FC(F)(F)c1cccc2c(SCCc3n[nH]c(=S)o3)ccnc12`, the GI50 is greater than 100 µM and the TGI was greater than 100 µM.
The compound `Cc1ccc(S(=O)(=O)n2ccc(-c3ccc4ccn(S(=O)(=O)c5ccc(C)cc5)c4c3)c2)cc1` came in with a TGI greater than 100 µM.
`C=C1C(=O)OC2/C=C(\CO)CC/C=C(\CO)CC(OC(=O)C(C)C)C12` (stereo unspecified) yielded a TGI greater than 100 µM.
`CCCCCCCCCCCCCCCCCC(=O)Nc1ccn(C2CCC(COP(=O)(O)O)O2)c(=O)n1` (stereo unspecified): the TGI was greater than 100 µM.
Turning to `C[C@@H](COCCC(=O)N1CCN(c2ncc(C(F)(F)F)cn2)CC1)Nc1cn[nH]c(=O)c1C(F)(F)F`, the GI50 was greater than 100 µM and the TGI was greater than 100 µM.
In turn, `CC1(C(=O)O)CCOc2ccccc21` (stereo unspecified) yielded a TGI greater than 100 µM.
For the compound `N#Cc1nc2c(S(=O)(=O)c3ccccc3)c(N)n(Cc3ccc(Cl)cc3)c2nc1C#N`, the GI50 was 9.99 µM and the TGI amounted to 28.9 µM.
Consider `OCC(CCc1c[nH]c2ccccc12)c1c[nH]c2ccccc12` (stereo unspecified), for which the TGI was 34.1 µM.
Consider `CC(NC(=O)C(=O)N/N=C1\C[C@@H](c2ccccc2)Nc2ccccc21)c1ccccc1` (stereo partly specified), for which the TGI was greater than 100 µM.
`CC12ON(P(=O)(c3ccccc3)c3ccccc3)C(C)(c3ccccc31)c1ccccc12` registered a TGI greater than 100 µM.
`N[C@H](CCC(=O)NCP(=O)(O)O)C(=O)O`: the TGI was greater than 100 µM.
Consider `COc1ccc2c(c1)CCN1CCCc3ccccc3C21` (stereo unspecified), for which the TGI is greater than 100 µM.
The same measure, in the same setting: to `CCn1c(=O)c2ccccc2n2c(=O)c3cc4ccccc4cc3nc12` belongs greater than 100 µM; to `CCN(CC)c1ccc(N=C2C=C(Cl)C(=O)c3ncccc32)c(C)c1`, 80.4 µM.
In the case of `COc1cc(NC(=O)NCc2ccco2)ccc1-c1ccc(NC(=O)NCc2ccco2)cc1OC`, the GI50 is 2.25 µM and the TGI is 8.54 µM.
For the compound `CN1C[C@@H]2Cn3c(c(C4=C(c5cn(C)c6ccccc56)C(=O)NC4=O)c4ccccc43)C[C@H]2C1`, the GI50 was 4.96 µM and 4.6 µM; the TGI was 12 µM and 15 µM.
Take `CC(=O)OCC12CCC3C4(C)CCCC(C)(C)C4CCC3(C)C1CC(C1=CC(=O)OC1O)O2` (stereo unspecified): the TGI was 3.63 µM.
Still for that read-out and setting: the same measure for `COC(=O)c1ccccc1C1=C([N+](=O)[O-])C(c2ccccc2)C(C#N)=C(N)O1` (stereo unspecified): greater than 100 µM.
